# Laboratory results reported in PubChem BioAssay AID485294 (National Center for Advancing Translational Sciences (NCATS), 2010).
# Out of some 370,000 compounds screened, about 150 (0.041%) were called active. Inconclusive means that the source gave no clear call. Such entries were picked first, then a sample of the others. Calls come from the whole dose curve; as a rule, active = well fitted inhibition curve with a large enough effect; inconclusive = small, poorly fitted or top-dose-only effect; inactive = flat fitted curve, though single readings scatter. No potency is given beside an inconclusive call; the fits are too rough.
# Molecular target: Beta-lactamase (Escherichia coli (strain K12)) (UniProt P00811)
# UniProt P00811, sequence (P00811 whole entry, looked up): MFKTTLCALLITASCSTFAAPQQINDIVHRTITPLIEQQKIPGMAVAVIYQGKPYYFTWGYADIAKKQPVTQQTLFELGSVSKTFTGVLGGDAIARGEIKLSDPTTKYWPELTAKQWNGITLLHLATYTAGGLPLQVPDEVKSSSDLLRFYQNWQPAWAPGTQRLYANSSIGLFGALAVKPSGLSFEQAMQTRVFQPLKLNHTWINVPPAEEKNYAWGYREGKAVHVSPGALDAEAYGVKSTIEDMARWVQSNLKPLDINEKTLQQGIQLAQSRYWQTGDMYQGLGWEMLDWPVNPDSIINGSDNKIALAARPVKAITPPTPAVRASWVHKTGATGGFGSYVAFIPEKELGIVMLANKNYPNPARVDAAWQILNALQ
# Assay: qHTS Inhibitors of AmpC Beta-Lactamase (assay with detergent); note: nearly all actives have a fitted effect of over 25% in size
# Conditions: AmpC hydrolysis of nitrocefin, absorbance 480 nm, 0.01% Triton; series mostly up to 114 µM
# Outline: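 AmpC (5.3 nM in the dispensed reagent) in 20 mM phosphate pH 7.0 with 0.01% (detergent screen) or 0.0001% Triton X-100 was preincubated with compounds for 15 min at room temperature. Nitrocefin was then added from an 800 uM solution, and hydrolysis was followed at 480 nm.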
# Potency is the fitted concentration of half-maximal effect; tags give direction and shape of the fitted curve.
row,Compound,Potency
1,O=C(Nc1ccc(C(=O)N2CCCC2)cc1)c1ccc2c(c1)OCO2,"inconclusive [inhibitor, single point]"
2,CC(C)(C)NC(=O)CSC(=Nc1cccc(F)c1)NC#N,"inconclusive [inhibitor, partial curve]"
3,Cc1ccc2c(c1)NCC(C(=O)NC1CCC(C)CC1)O2 (stereo unspecified),"inconclusive [inhibitor, full curve, poor fit]"
4,O=C(Cn1cc2c(n1)CCCC2)NCCCN1CCN(Cc2ccccc2)CC1,"inconclusive [inhibitor, full curve, poor fit]"
5,CCn1c(SCC(=O)Nc2ccc(NC(=O)c3cccs3)cc2)nnc1-c1cccnc1,"inconclusive [inhibitor, partial curve, poor fit]"
6,O=C(Cn1nnc2ccccc21)c1cccc([N+](=O)[O-])c1,"inconclusive [inhibitor, full curve, poor fit]"
7,O=C(O)c1cc(N=Nc2c(O)ccc3ccccc23)cc(C(=O)O)c1,inactive
8,NC(=O)CC(NC(=O)Cc1ccc(Br)cc1)c1ccc(N2CCN(c3ccccn3)CC2)c([N+](=O)[O-])c1 (stereo unspecified),"inconclusive [inhibitor, full curve, poor fit]"
9,CCc1nc2ccc(C(=O)NCCc3ccco3)cc2nc1CC,inactive
10,CC12COC3(C(=O)NCCc4ccccc4)CC1CCC32C (stereo unspecified),inactive
11,CCN(c1ccccc1)c1ncnc2c1cnn2-c1ccccc1,"inconclusive [inhibitor, full curve, poor fit]"
12,CCOC(=O)c1ccc2c(c1)N(CC(=O)N1CCCC1)C(=O)C(C)(C)O2,"inconclusive [inhibitor, full curve, poor fit]"
13,C[C@H](NC(=O)c1nc[nH]c1C(=O)N1CCNCC1)C(=O)OC(C)(C)C,"inconclusive [inhibitor, full curve, poor fit]"
14,COC(=O)C1=C(O)/C(=C\c2ccc(CNS(=O)(=O)c3ccc(Cl)cc3)o2)N=C1C,inactive
15,COc1cccc(N(C(=O)C2CSC(=O)C2)C(C(=O)NC(C)(C)C)c2ccncc2)c1 (stereo unspecified),inactive
16,CC(C)(C)[C@H]1C=C(C(=O)Nc2ccccc2)O[C@@H](OCc2ccc(CO)cc2)C1,inactive
17,N#Cc1ccc2c(c1)C[C@]1(c3ccsc3)OC3=C(C(=O)OC4(CCCCC4)C3)C2O1,"inconclusive [inhibitor, full curve]"
18,CCOc1ccc(CNc2nnnn2C)cc1,"inconclusive [inhibitor, full curve, poor fit]"
19,CCOc1ccc(C(=O)Nc2ccc(S(=O)(=O)N3CCN(C)CC3)cc2)cc1,"inconclusive [inhibitor, single point]"
20,CCC(=O)N1CCc2cc(Br)cc(S(=O)(=O)N3CCC(C(=O)NC(C)C)CC3)c21,"inconclusive [inhibitor, partial curve]"
21,CCOc1ccccc1NC(=O)CN1C(=O)CSC(C)C1=O (stereo unspecified),"inconclusive [inhibitor, full curve, poor fit]"
22,CCOc1ccc(NC(=O)CN(C)C(=O)CCNC(=O)c2ccc(Br)cc2)cc1OCC,"inconclusive [inhibitor, full curve, poor fit]"

row,Compound,Potency
1,CC(C)C(=O)NC(=S)Nc1ccccc1C(=O)NC1CCCCC1,"inconclusive [inhibitor, single point]"
2,COc1ccc2c(c1OC)C(=O)OC2C/C(=N\NC(N)=O)c1ccccc1 (stereo unspecified),inactive
3,c1cncc(-c2csc(NCc3ccco3)n2)c1,inactive
4,O=C(O)CC1CCS(=O)(=O)C1 (stereo unspecified),"inconclusive [inhibitor, full curve]"
5,CCCCCCc1cc2cc(-c3nnc(-c4ccccc4O)o3)c(=O)oc2cc1O,"inconclusive [inhibitor, full curve]"
6,CC1Cc2ccccc2N1C(=O)CSc1nnc(NC(=O)Cc2cccs2)s1 (stereo unspecified),"inconclusive [inhibitor, full curve, poor fit]"
7,CN(CC(=O)Nc1ccc(F)cc1)C(=O)COC(=O)c1ccccc1,"inconclusive [inhibitor, full curve, poor fit]"
8,CCC(=O)N1CCc2cc(Br)cc(S(=O)(=O)CCC(=O)NCc3ccco3)c21,inactive
9,CCc1nnc(SCC(=O)Nc2ccc3c(c2)OCO3)o1,"inconclusive [inhibitor, partial curve, poor fit]"
10,Cc1ccc([N+](=O)[O-])cc1N=Nc1c(C)[nH]n(C(N)=S)c1=O,"inconclusive [inhibitor, partial curve]"
11,O=S(=O)(Nc1cccc(-c2ccc3nncn3n2)c1)c1cccc(F)c1,"inconclusive [inhibitor, full curve, poor fit]"
12,COc1cc(OC)cc(C(=O)Nc2cc(-c3nc4cccnc4s3)ccc2C)c1,inactive
13,CCNc1nc(N)nc(Oc2ccc(C(=O)OC)cc2)n1,"inconclusive [inhibitor, full curve]"
14,COc1ccc2c(c1)cc1n2CCN=C1N,"inconclusive [inhibitor, full curve, poor fit]"
15,O=C1Nc2c(c(=O)[nH]c(=O)n2-c2ccc(F)cc2)C1(NS(=O)(=O)c1ccccc1)C(F)(F)F (stereo unspecified),inactive
16,O=C(O)c1ccc(NC2=C(N3CCOCC3)C(=O)c3ccccc3C2=O)cc1,"inconclusive [inhibitor, full curve, poor fit]"
17,COc1ccccc1CNC(=O)CCCNC(=O)Cn1cnc2sc(C)c(C)c2c1=O,"inconclusive [inhibitor, full curve, poor fit]"
18,CC(C)(C)C(=O)Nc1nc2c(s1)CN(Cc1ccccc1)CC2,inactive
19,CC(C)(C)c1ccc(S(=O)(=O)n2c(CN3CCOCC3)nc3ccccc32)cc1,"inconclusive [inhibitor, single point]"
20,Cc1sc(NC(=O)CCCC(=O)O)c(C#N)c1C,"inconclusive [inhibitor, single point]"
21,Clc1ccc(C(c2nnnn2C2CCCC2)N2CCN(Cc3ccncc3)CC2)cc1 (stereo unspecified),"inconclusive [inhibitor, full curve, poor fit]"
22,COc1ccc(N2CCN(C(=O)CN(c3ccc(OC)cc3)S(=O)(=O)c3ccccc3)CC2)cc1,"inconclusive [inhibitor, full curve, poor fit]"

row,Compound,Potency
1,Cc1cc(Nc2ccc(C)c(F)c2)n2ncnc2n1,inactive
2,CN(C)c1ccc(NC(=O)c2cccc([N+](=O)[O-])c2)c2ccccc12,"inconclusive [inhibitor, full curve, poor fit]"
3,COC(=O)c1[nH]c2ccc(Br)cc2c1NC(=O)CN1CCCCC1CCO (stereo unspecified),"inconclusive [inhibitor, partial curve]"
4,Oc1ccc(-c2n[nH]c(=S)n2-c2ccc3c(c2)OCCO3)cc1,inactive
5,Cc1cc(C(=O)NCc2cccs2)no1,"inconclusive [inhibitor, full curve, poor fit]"
6,COc1ccc(S(=O)(=O)Nc2ccc(O)c3ccccc23)cc1,"inconclusive [inhibitor, single point]"
7,COCCCNC(=O)Cn1c(=O)n(Cc2ccc(F)cc2)c(=O)c2sccc21,"inconclusive [inhibitor, single point]"
8,COc1ccc(S(=O)(=O)N2CCC(C(=O)NCCc3ccccc3)CC2)cc1,"inconclusive [inhibitor, full curve, poor fit]"
9,O=C(c1cnn2ccccc12)N(Cc1ccco1)C1CCCC1,"inconclusive [inhibitor, full curve, poor fit]"
10,c1cncc(CNc2ncnc3ccc(-c4cccnc4)cc23)c1,"inconclusive [inhibitor, partial curve, poor fit]"
11,O=C(O)c1ccc2c(=O)n(-c3ccccc3F)c(=S)[nH]c2c1,"inconclusive [inhibitor, partial curve]"
12,CCOc1ccc2nc(C)cc(Nc3cccc([N+](=O)[O-])c3)c2c1,inactive
13,COC(=O)c1c(NC(=O)C2COc3ccccc3O2)sc2c1CCN(Cc1ccccc1)C2 (stereo unspecified),inactive
14,COCCOC(=O)/C(=C\c1cc(C(C)(C)C)c(O)c(C(C)(C)C)c1)C(C)=O,inactive
15,COc1cc(C)c(C(C)C)cc1S(=O)(=O)N1CCOCC1,"inconclusive [inhibitor, partial curve, poor fit]"
16,Oc1cc(-c2cccnc2)cc2cccnc12,inactive
17,CCCCCC(=O)Nc1cc(S(=O)(=O)N2CCOCC2)ccc1N1CCCCC1,"inconclusive [inhibitor, full curve]"
18,O=[N+]([O-])c1ccc(Cl)c([N+](=O)[O-])c1,"inconclusive [inhibitor, full curve, poor fit]"
19,Cc1ccccc1CS(=O)(=O)c1cn(CC(=O)N2CCC(C)CC2)c2ccccc12,inactive
20,OCCn1c(C(F)(F)F)nc2ccccc21,"inconclusive [inhibitor, single point]"
21,O=C(CNC(=O)c1ccc(Cl)cc1)OCC(=O)c1ccc2c(c1)OCCO2,"inconclusive [inhibitor, single point]"
22,CCc1ccc(NC(=O)C2CCN(S(=O)(=O)c3ccc4[nH]c(=O)ccc4c3)CC2)cc1,"inconclusive [inhibitor, partial curve]"
